# Test results published in the supplement of paper PMC4604168 (melanoma cell lines).
# This is one part of the list. Most values come without repeats; read them as rough.
# Experiments:
# Assay in all cases: cell count relative to DMSO control; melanoma cells; higher = more viable cells
# Details in all cases: library dose: low library concentration; 72 h
# MZ2-MEL = tested on: MZ2-MEL
# MeWo = tested on: MeWo
# RPMI7951 = tested on: RPMI7951
# RVH-421 = tested on: RVH-421
# SkMel28 = tested on: SkMel28
# SkMel2 = tested on: SkMel2
# SkMel30 = tested on: SkMel30
# SkMel5 = tested on: SkMel5
# UACC257 = tested on: UACC257
# UACC62 = tested on: UACC62
# 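Further: cell number obtained by counting DAPI-stained nuclei in high-throughput microscope images with image analysis software, screen run in 1,536-well plates.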
SMILES,cell count (MZ2-MEL),cell count (MeWo),cell count (RPMI7951),cell count (RVH-421),cell count (SkMel28),cell count (SkMel2),cell count (SkMel30),cell count (SkMel5),cell count (UACC257),cell count (UACC62)
"C[C@]1(O)C[C@@H](c2nc(-c3ccc4ccc(-c5ccccc5)nc4c3)c3c(N)nccn32)C1 + O=C(Nc1ccccc1)c1cc([N+](=O)[O-])ccc1Cl [GW9662] (first compound 0.4 µM, partner dose 2 µM)",93.2%,82.9%,93%,83.6%,80.2%,85.7%,81.6%,84.1%,100%,82.5%
"CCN(CC)CCNC(=O)c1c(C)[nH]c(/C=C2\C(=O)Nc3ccc(F)cc32)c1C [sunitinib] + CN(C)S(=O)(=O)c1ccc2c(c1)/C(=C/c1cc3c([nH]1)CCCC3)C(=O)N2 [SU6656] (first compound 0.4 µM, partner dose 0.4 µM)",105%,91%,103%,106%,66.4%,95.7%,92%,94%,88.2%,94.2%
"C[C@]1(O)C[C@@H](c2nc(-c3ccc4ccc(-c5ccccc5)nc4c3)c3c(N)nccn32)C1 + Cc1ccc(NC(=O)c2cccc(N(C)C)c2)cc1NC(=O)c1ccc(O)cc1 [ZM336372] (first compound 0.4 µM, partner dose 2 µM)",81.6%,105%,70.4%,74.4%,85.6%,92.4%,93.5%,80.4%,79%,101%
"Cn1cnc2c(F)c(Nc3ccc(Br)cc3Cl)c(C(=O)NOCCO)cc21 [selumetinib] + COc1ccc2c(c1)CCC1C2CCC2(C)C(NCCCCCCN3C(=O)C=CC3=O)CCC12 [U73122] (first compound 0.015 µM, partner dose 0.4 µM)",89.9%,84.5%,91.2%,65.9%,95.9%,73.9%,63.3%,116%,89%,66.8%
"Cn1cnc2c(F)c(Nc3ccc(Br)cc3Cl)c(C(=O)NOCCO)cc21 [selumetinib] + COc1ccc(-c2ccc3c(N4CCOCC4)nc(N4C[C@@H](C)O[C@@H](C)C4)nc3n2)cc1CO [KU0063794] (first compound 0.015 µM, partner dose 0.02 µM)",101%,86.6%,93.8%,58.3%,66.4%,85%,30.7%,113%,69.9%,61.4%
"CCN(CC)CCNC(=O)c1c(C)[nH]c(/C=C2\C(=O)Nc3ccc(F)cc32)c1C [sunitinib] + Cc1cc(N2CCOCC2)cc2[nH]c(-c3c(NC[C@@H](O)c4cccc(Cl)c4)cc[nH]c3=O)nc12 [BMS536924] (first compound 0.4 µM, partner dose 0.2 µM)",113%,89.5%,98.5%,109%,75.1%,91.1%,79%,89.5%,72.8%,87.8%
"C[C@]1(O)C[C@@H](c2nc(-c3ccc4ccc(-c5ccccc5)nc4c3)c3c(N)nccn32)C1 + CN(C)S(=O)(=O)c1ccc2c(c1)/C(=C/c1cc3c([nH]1)CCCC3)C(=O)N2 [SU6656] (first compound 0.4 µM, partner dose 0.4 µM)",93.8%,90.2%,82.8%,78.8%,80.6%,84.4%,65.8%,72.7%,83.6%,86.8%
"CCN(CC)CCNC(=O)c1c(C)[nH]c(/C=C2\C(=O)Nc3ccc(F)cc32)c1C [sunitinib] + Cc1cc([N+](=O)[O-])ccc1NS(=O)(=O)c1cc(Cl)ccc1Cl [FH535] (first compound 0.4 µM, partner dose 1 µM)",95.4%,88.5%,98.9%,87.1%,71.2%,118%,62.3%,68.6%,74.4%,74.9%
"Cn1cnc2c(F)c(Nc3ccc(Br)cc3Cl)c(C(=O)NOCCO)cc21 [selumetinib] + O=C(O)C(=O)Nc1sc2c(c1C(=O)O)CCNC2 [TCS401] (first compound 0.015 µM, partner dose 1.66667 µM)",94.2%,93.2%,120%,110%,81.3%,83.6%,83.5%,103%,98.8%,66.8%
"CCN(CC)CCNC(=O)c1c(C)[nH]c(/C=C2\C(=O)Nc3ccc(F)cc32)c1C [sunitinib] + CN(NC(=O)CC(=O)NN(C)C(=S)c1ccccc1)C(=S)c1ccccc1 [STA4783] (first compound 0.4 µM, partner dose 0.006 µM)",102%,89.3%,106%,13.4%,69.5%,120%,87.4%,86%,95.8%,77.1%
